The source gives no read counts; variants with many changes may rest on few reads.
B1: LINE1-full (parent)
chain: UACGUAGGUGGUUUUCCCCUGAUAGUGCUAAGGGGGCCUGGAAGUUUGGACUGGGCAGAGCUCAACACAGCGUGGCAAAGUGGCUGUGGCUAGACUGCCUCUCUGGAUUCCUCGUCACUCAGCAGGGCAUCUCUGAGAGAAAUGCC

Variants of: B1
Experiment: self-cleavage, relative activity (ratio to wild type); higher = more cleavage; in vitro, sequencing; the parent is a self-cleaving ribozyme

Variant	self-cleavage
U45C A138G A142G	0.75
U45C G58A U143G	0.06
U45A U47C A50U U85C U91A	0
U45A U87A C101A	0.12
U45A A78G U108C	1.42
U45C U62C A140G	0.05
U45C A141G C146U	0.9
U45A U109C U143A	1.03
A43G U109A A129G	1.17
U45C A64G A92U A142G	0.85
A43U U52C A64G U100C A140G	0.81
U45C A59G A107U U132C	0
U45C U62C U143C	0.15
A43U A64U A69G	0.28
A43G U132C A142G	1.05
U45C A78G A94G C128U	0.09
U45C A67G C101U A142G	0.99
U45A A92G A138G	0.05
G44U U47C U62C A78G A136G	0.25
U45C G53A A94G	0.31
A43U A64G A78G U102A	0.25
U45C A50G U130C	1.02
U45C U81A U104C U130C	1.02
G44A U73C U100C	1.84

Variant	self-cleavage
A43G U130A A138G	1.53
A43U U85A U119C	0.14
U45A U130C A140G	1.71
U45A U130C A140U	0.99
A43U A77G U130C A138G	1.62
A43U A67G C90A	0.06
U45C A136G A141G	0.81
U45A A50C U52A A121G	0
U45C A78G U85G U108C	2.04
U45C C68U G72A	0.06
U45C U73A U85C	0.17
U45C A121U A138U A142G	1.07
A43U A117G U143C	0.92
A43U A64G C71A A117G	0.11
A43U U85C A129G	0.19
U45C A140U A141C	0.85
U45A U46A U96C	0.12
U45C A69U U132C U143A	0.1
U45C A65U A107U U112C A124G	0
U45C C56U U100G A129G	0.05
U45A A67U G106A	0.11
U45C U52A A140U	1.67
U45C A117G C128G	0.96
U45C U62A A69G U87A	0

Variant	self-cleavage
A43U A69G U102C	0.96
U45C U47C A138G	1.02
A43U U46A G72A	1.46
A43U U45A A77G A129G	2.38
G44U U45C U73A G137U	1.9
G44A C68U G137A A142U	0.35
U45C U85A U115C A138U	0.12
A43G U130C U134A	0.93
U45C C131U A140C	1.68
U45C A77G A94U U104C	0.34
G44A U47A A59G U134C	0.06
U45C U47A C63U C90A A94G A138G	0.17
A43U U45C A59G U109C	0
U45A A67C U73C	0.09
U45A A79C C116U	2.04
A43G U104C U109C A121U U134A	1.15
U45C A67G U134C	0.53
U45C G60U A77G U109C A138G	0.06
U45C A94G U112A	1.84
A43U A69U A117G	0
A43U A94G A129G	0.66
A43U A59G U102C A124G	0
G44U U47A U87A U100A	0.08
G44A U62A U73A	0.03

Variant	self-cleavage
G44A A129U A136G A142G	1.59
U45C C99U U119A A136G	0.24
U45C C63A G125A	0.04
U45C U52A U62A U115A	0
A43G U100C A117G	1.15
U45C U47C U112C	1.84
A43G U85C U115C	0
U45A U100C A124G U134G	2.45
U45C A67G A140G	0.28
U45C U96C A124U	0.38
U45C A94G A136G	0.24
U45C U62C U87C G114A	0.07
U45C C95U U96C	0.12
U45C U62C U85C C111U	0.06
A43G U96A A117G G122A	0.1
U45A U52A A124U A140G	1.41
U45A U52C C71A	0.13
A43G U87A G88A U132G U134A	0
U45C A59G U96A U143A	0.07
U45C A67G U96A	0
U45C U47A A50U U87A U91C U96C	0
U45A A69G A94U U104C	0.07
A43U A77G G114A U115C	2.07
U45C U47A A64U	0.34

Variant	self-cleavage
G44A U45C A136G	0.88
A43U U45G G74A	0.97
A43U A65G U134C	0.11
A43G U100A A107G A140G A141G	0
A43U A65G A77C A117U A121U	0
A43U U52A U112C	2.65
A43G U96A A138G A142G	0
U45A U52C A79G A140G	0.75
U45C A57U U73A U81A A142G	0.06
A43G U112C A136G	0.63
U45C G48A A140G	1.05
A43G U119C U134A	1.51
U45C A78G A92U U132C	1.08
U45C U73A C110A C118A	1.25
A43U U134C A140U	1.15
U45A A57U A67G	0.05
U45C U87C C145U	0.27
A43G U85A U134C	0.12
U45C U62A U130C	0.02
U45C G88A U130A U134C	0.05
A43U U108C A140U	1.03
A43U A141U A142G	1.26
U45A A94G U130C A142G	0
A43G U108C A141G	3

Variant	self-cleavage
U45A U100A A107U	0.94
U45C C63G A92G	0.11
U45C U73C A141G	1.81
A43G U130C A140U	0.44
G44A U115C A124U	1.67
U45A A77U U87A A142G	0.05
U45C A79G U109A C116A U134A	0.43
U45A U52C G72U A140G	0
U45C A78G U130C	0.92
U45C A59G G127A	0.04
G44U U45C U47C U112C	1.9
U45C A59G C113U	0.08
A43U U62C A64G U104C	0
U45C A57G U130C	1.1
A43U U100C U130C	1.19
G44A U85C A141G U143C	0.1
U45A G55A C98G	0.05
A43U G74A U143A	0.75
A43U U102A A117G	2.65
U45C A64C U115A	0.33
U45A C71U A138G	1.18
U45C C90U U100C U119A	0
U45C U52A A107G U119A	1.64
U45C G54A U62C G93U A121G	0.02

Variant	self-cleavage
U45C G58A A65G C110A	0.06
A43U A59G U102C	0.09
U45C A136G A138U	0.08
U45A U134C A140G	1.31
U45C U81A A141G	1.6
G44U U46C A94G C123U	0.33
U45C A50G A136G	0
U45C U52A A117G	1.86
U45C U46C A57G A78G G114A U130C	0
U45C G93A C113G U134C A141G	0.04
G44A U87C U143C	0.26
U45A U100C U109C	0.32
U45C A117G A136G	2.3
A43G U87A U143G	0
U45C A64U U85C U87C U91A A92G	0
A43G U85C A92U A136G	0
A43G U102C U134C	1.7
U45C U87A A94U A138U	0.03
A43G U87A C90U U134A A140G	0
A43U U87A A94G U134A	0.17
U45C U85A G89A A141G	0.06
U45C G53C U62C A78G U102C G114U A129G A142G	0
A43U U102A U104A A129G	2.1

— the RNAGym collection of RNA variant scans (doi:10.7554/elife.90254)
